From PubChem BioAssay AID1468 (National Center for Advancing Translational Sciences (NCATS), 2008)
Values joined by “and” are separate entries in the source; they are usually repeats but may differ in a detail not shown here. Equal entries are not always repeated. The campaign covered roughly 280,000 compounds. About 1,100 (0.39%) were called active. This list was built around the results that the source calls inconclusive (neither active nor inactive); the mix of calls is not that of the screen. Calls come from the whole dose curve; as a rule, active = well fitted inhibition curve with a large enough effect; inconclusive = small, poorly fitted or top-dose-only effect, or effect the other way; inactive = flat fitted curve, though single readings scatter. Where the call is inconclusive, the potency comes from a doubtful curve fit.

Biological target: Microtubule-associated protein tau (Homo sapiens) (UniProt P10636)
Sequence of UniProt P10636 (P10636 whole entry, looked up): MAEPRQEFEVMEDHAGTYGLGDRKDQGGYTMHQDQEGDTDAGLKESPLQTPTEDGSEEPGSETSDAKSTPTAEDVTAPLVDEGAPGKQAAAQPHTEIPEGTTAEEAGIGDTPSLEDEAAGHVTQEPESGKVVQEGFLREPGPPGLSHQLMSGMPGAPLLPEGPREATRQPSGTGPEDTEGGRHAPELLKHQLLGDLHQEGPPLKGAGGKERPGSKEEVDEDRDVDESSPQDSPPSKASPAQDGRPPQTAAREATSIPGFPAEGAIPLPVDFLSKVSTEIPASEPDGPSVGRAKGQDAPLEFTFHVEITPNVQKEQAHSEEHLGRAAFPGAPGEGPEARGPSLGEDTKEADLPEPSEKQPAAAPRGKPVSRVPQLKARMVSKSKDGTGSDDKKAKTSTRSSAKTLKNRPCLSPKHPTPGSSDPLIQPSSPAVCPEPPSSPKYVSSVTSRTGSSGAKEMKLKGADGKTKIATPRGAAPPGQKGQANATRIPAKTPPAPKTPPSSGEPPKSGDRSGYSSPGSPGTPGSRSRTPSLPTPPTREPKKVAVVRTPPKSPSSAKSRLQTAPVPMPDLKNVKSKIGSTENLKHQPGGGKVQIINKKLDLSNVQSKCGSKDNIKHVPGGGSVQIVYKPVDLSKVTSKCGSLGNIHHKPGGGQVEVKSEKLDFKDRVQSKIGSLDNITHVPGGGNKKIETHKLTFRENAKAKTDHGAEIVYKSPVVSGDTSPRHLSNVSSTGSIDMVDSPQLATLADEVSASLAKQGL
Assay: qHTS for Inhibitors of Tau Fibril Formation, Fluorescence Polarization; note: nearly all actives have a fitted effect of over 55% in size
Settings: K18 P301L tau heparin fibrillization, Alexa594 FP, 6 h; series mostly up to 57.7 µM; activity, negative = inhibition: at the top concentration
How it was run: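 Heparin (20 uM) drove fibril formation of recombinant tau K18 P301L, 15 uM unlabeled with 0.24 uM Alexa 594 label, for 6 hr at 37 C in 100 mM sodium acetate pH 7. Fluorescence polarization (555/632 nm) read 1 hr after 30 uM ThT.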
% is set by controls: 0 for no effect and ±100 for the full control effect; potency is the fitted concentration of half-maximal effect; tags give direction and shape of the fitted curve.

Potency, inactive:
CN(C(=O)CCCOc1ccc2[nH]c(=O)ccc2c1)C1CCCCC1

Potency, inconclusive:
Fc1ccc(-n2ncc3c(Nc4ccc(Oc5ccc(Cl)cc5)cc4)ncnc32)cc1 17.8 µM [inhibitor, partial curve], Cc1ccc(NC(=O)N(Cc2ccc3c(c2)OCO3)Cc2cc3cc4c(cc3[nH]c2=O)OCCO4)cc1 39.8 µM [inhibitor, single point], Cc1ccc(-n2ncc3c(NCCc4ccccc4)ncnc32)cc1 20 µM [inhibitor, partial curve], COc1cc(NC(=O)CCCSc2nc(-c3ccco3)cc(C(F)(F)F)n2)cc(OC)c1OC 25.1 µM [activator, single point], CCOC(=O)c1c(C)[nH]c(C(=O)N2CCCC(C(=O)c3cccc(OC)c3)C2)c1C (centres undefined) 0.199 µM [inhibitor, full curve, poor fit], CC(=O)c1ccc(N2CCN(C(=O)CCCn3c(=O)[nH]c4ccccc4c3=O)CC2)cc1 31.6 µM [inhibitor, single point], O=C(NNc1ccccc1[N+](=O)[O-])Nc1ccc(Cl)c(Cl)c1 17.8 µM [inhibitor, single point], CCN(c1ccccc1)S(=O)(=O)c1cc(C(=O)Nc2ccc(Br)cc2)ccc1F 8.91 µM [inhibitor, partial curve] and 14.1 µM [inhibitor, partial curve], COc1ccc2oc(-c3ccc(C)c(NC(=O)c4ccc(N5CCCCC5)c([N+](=O)[O-])c4)c3)nc2c1 20 µM [inhibitor, partial curve], Cc1ccc(NS(=O)(=O)c2ccc(NC(=O)c3cccs3)cc2)c(C)c1 15.8 µM [inhibitor, partial curve], CCOC(=O)C1=C(Cc2ccc(Cl)cc2)C(=O)c2ccccc2C1=O 31.6 µM [inhibitor, partial curve], O=S(=O)(c1cccc(NC(=S)N2CCN(c3ccccc3F)CC2)c1)C(F)F 28.2 µM [inhibitor, single point], CN1Cc2c(N3CCOCC3)nc3sc(C(=O)c4ccc(Br)cc4)c(N)c3c2CC1(C)C 12.6 µM [activator, partial curve], N#CC1=C2SCN(Cc3ccco3)CN2C(=O)CC1c1c(F)cccc1Cl (centres undefined) 8.91 µM [inhibitor, partial curve], Cc1ccc(CCNc2nc3ccccc3c3nc(-c4ccccc4)nn23)cc1 12.6 µM [inhibitor, partial curve], Cc1ccc(C)c(NC(=O)CSc2nncn3c2cc2sccc23)c1 44.7 µM [inhibitor, single point], CCOC(=O)c1ccc(N2C(=O)c3[nH]nc(-c4ccc(OC)cc4)c3C2c2ccc(C)cc2)cc1 (centres undefined) 11.2 µM [inhibitor, partial curve], COC(=O)c1cc(NC(=O)Cn2ncc3c2-c2ccccc2OC3)cc(C(=O)OC)c1 17.8 µM [inhibitor, partial curve], Cc1cccc(CS(=O)(=O)CC2Nc3ccc(C(=O)NCc4ccccc4Cl)cc3NC2=O)c1 (centres undefined) 39.8 µM [inhibitor, single point], O=C(NCCc1c[nH]c2ccccc12)Nc1ccccc1C(F)(F)F 3.55 µM [activator, single point], O=C(CSc1nnc2scc(-c3ccccc3)n12)c1ccc2c(c1)OCCO2 0.562 µM [inhibitor, partial curve], O=C(CSc1ncnc2ccccc12)c1ccco1 14.1 µM [inhibitor, partial curve], CCc1ccc(NC(=O)Cn2c(=O)n(Cc3ccccc3)c(=O)c3oc4ccccc4c32)cc1 14.1 µM [inhibitor, partial curve], O=C(NC1=NCCS1)c1cc(-c2ccc(F)cc2)nc2ccccc12 39.8 µM [inhibitor, single point], CC(C)S(=O)(=O)c1csc(NC(=O)Nc2cccc([N+](=O)[O-])c2)c1Cl 17.8 µM [inhibitor, partial curve], COc1cccc(S(=O)(=O)NCc2ccc(C(=O)Nc3cccc(Cl)c3)cc2)c1 17.8 µM [inhibitor, partial curve], O=c1[nH][nH]c(C(F)(F)F)c1C=NCc1cccs1 25.1 µM [inhibitor, single point], N#Cc1ccc(C(=O)Nc2ccc(Cl)c(-c3nc4cc(Cl)ccc4o3)c2)c(F)c1 11.2 µM [inhibitor, partial curve], COc1ccc(NC(=O)CC2C(=O)N(c3ccc(OC)cc3)C(=O)N2C(C)C)cc1 (centres undefined) 17.8 µM [inhibitor, single point], CCN(C(=O)c1nn(-c2ccc(OC)c(Cl)c2)c(=O)c2c1c1ccccc1n2C)c1cc(OC)ccc1OC 39.8 µM [inhibitor, single point], Cc1ccc(NC(=O)c2cccc(NC(=O)N3CCSc4ncccc43)c2)cc1Cl 25.1 µM [inhibitor, partial curve], COc1cc(OC)cc(C(=O)Nc2cc(-c3nc4ccccc4s3)ccc2OC)c1 1.78 µM [inhibitor, partial curve, poor fit], Cc1[nH]c2ccccc2c1C(=O)C(=O)NCCC1=CCCCC1 12.6 µM [inhibitor, single point], COc1cc(/C=C2\SC(=Nc3ccc(N4CCOCC4)cc3)N(C)C2=O)ccc1OC(C)C(=O)O (centres undefined) 12.6 µM [activator, partial curve], Cc1ccc(C)c(NC(=S)Nc2ncccc2C)c1 39.8 µM [inhibitor, single point], Cc1[nH]c2ccccc2c1C(=O)/C=C/c1ccccc1Cl 25.1 µM [inhibitor, partial curve], CCOC(=O)c1c(C)[nH]c(C2=NNC(=Nc3ccc(OCC)cc3)SC2)c1C 44.7 µM [inhibitor, single point], CC1=CC(=C(C#N)c2nc3ccccc3s2)C=C(C)N1CC1CCCO1 (centres undefined) 2.82 µM [activator, partial curve, poor fit], NC(=O)C1CCN(C2=C(NS(=O)(=O)c3ccc(Cl)cc3)C(=O)c3ccccc3C2=O)CC1 35.5 µM [inhibitor, partial curve, poor fit], O=C(N/N=C/c1cc(Cl)ccc1O)C(=O)Nc1ccccc1OC(F)(F)C(F)F 11.2 µM [inhibitor, partial curve]

activity, negative = inhibition, inactive:
CCCCn1c(-c2csc3c2CCCC3)n[nH]c1=S -3.01%, CCN1/C(=C/c2cc[n+](CCCS(=O)(=O)[O-])c3ccccc23)Sc2ccccc21 -6.84%, O=[N+]([O-])C1=C(Nc2cccc3ccccc23)CS(=O)(=O)C1 -6.52%, C/C=C(/C)C(=O)Nc1cccc(C2=NOC3(C2)C[C@@H](C(N)=O)N(C(=O)c2ccc(OC)cc2)C3)c1 (some centres undefined) 5%, CCCn1c2ccccc2c2cnn(CC(=O)N(CCCOC(C)C)Cc3ccco3)c(=O)c21 8.05%, O=C(Cn1c(=O)n(Cc2ccc(F)cc2)c(=O)c2sc3ccccc3c21)NCc1ccccc1Cl -16.8%, O=C(O)Cc1c(C(=O)O)[nH]c2ccc(C(=O)O)cc12 0.577%, O=C1N=C(O)CN1/N=C/c1ccc(-c2ccc([N+](=O)[O-])cc2)o1 -0.245%, COCCCN1C(=O)/C(=C\c2cccs2)C(C(=O)OC)=C1C -4.65%, CCc1ccc(NC(=O)c2cnn(-c3c(C)cccc3C)c2C2CCNCC2)cc1 -5.62%, COc1ccc(/C=N/N2CCN(C)CC2)cc1OC -0.446%, CC1=CC(=O)OC1Cc1ccc2ccccc2n1 (centres undefined) 0.115%, CCOc1ccc(N/C(C)=C\C(=O)c2ccc3c(c2)OCCO3)cc1 13.4%, CCc1ncc(/C=C2\C(=O)Nc3ccccc32)[nH]1 -6.05%, Cc1ccc(S(=O)(=O)NCCSCc2ccco2)cc1 -8.29%, Cc1ccc(C)c(CN2C(=O)c3ccccc3Sc3ccc(C(=O)NC4CCCC4)cc32)c1 -4.3%, COCCCN1C(=O)c2ccc(C(=O)NCc3ccco3)cc2C1=O 0.878%, CC(=O)c1cc(-c2ccccc2)n(CC(=O)N2CCC(N3CCCCC3)CC2)c1C 1.55%, O=C(NC(=S)NNC(=O)[C@H]1C[C@@H]1c1ccccc1)c1cccc(F)c1 -1.01%, COc1ccccc1C(c1nnnn1C(C)(C)C)N1CCN(C(=O)c2ccco2)CC1 (centres undefined) -0.217%, COc1ccc(N2C(=O)CC2(C#N)c2ccc(OCc3ccccc3)cc2)cc1 (centres undefined) 10.7%, COc1ccc(-c2n[nH]c(=S)n2N)c(OC)c1 4.44%, Cc1ccc(N(CC(=O)NCc2ccc(F)cc2)S(=O)(=O)c2cccs2)cc1 -0.691%, O=C(CSCc1ccc(Cl)cc1)Nc1nccs1 -5.59%, COc1ccc(NC(=S)Nc2ccc(OC(F)F)cc2)cn1 -8.64%, CCCCc1nc2ccccc2c(NC(=O)CNC(C)(C)C)c1CCC -0.0195%, N#Cc1c(-c2ccccc2Cl)c2c([nH]c1=O)-c1ccccc1OC2 -3.86%, COc1ccc2cc(C(=O)c3ccccc3)c(=O)oc2c1 -11.1%
